# Over roughly 33,000 sequences, “E-score (-0.5 to 0.5)” has its median near -0.011; the highest 2% begin near 0.28. The list shows a part of the results.
# Molecular target: T1, Gcr1 (UniProt P07261)
# T1 sequence: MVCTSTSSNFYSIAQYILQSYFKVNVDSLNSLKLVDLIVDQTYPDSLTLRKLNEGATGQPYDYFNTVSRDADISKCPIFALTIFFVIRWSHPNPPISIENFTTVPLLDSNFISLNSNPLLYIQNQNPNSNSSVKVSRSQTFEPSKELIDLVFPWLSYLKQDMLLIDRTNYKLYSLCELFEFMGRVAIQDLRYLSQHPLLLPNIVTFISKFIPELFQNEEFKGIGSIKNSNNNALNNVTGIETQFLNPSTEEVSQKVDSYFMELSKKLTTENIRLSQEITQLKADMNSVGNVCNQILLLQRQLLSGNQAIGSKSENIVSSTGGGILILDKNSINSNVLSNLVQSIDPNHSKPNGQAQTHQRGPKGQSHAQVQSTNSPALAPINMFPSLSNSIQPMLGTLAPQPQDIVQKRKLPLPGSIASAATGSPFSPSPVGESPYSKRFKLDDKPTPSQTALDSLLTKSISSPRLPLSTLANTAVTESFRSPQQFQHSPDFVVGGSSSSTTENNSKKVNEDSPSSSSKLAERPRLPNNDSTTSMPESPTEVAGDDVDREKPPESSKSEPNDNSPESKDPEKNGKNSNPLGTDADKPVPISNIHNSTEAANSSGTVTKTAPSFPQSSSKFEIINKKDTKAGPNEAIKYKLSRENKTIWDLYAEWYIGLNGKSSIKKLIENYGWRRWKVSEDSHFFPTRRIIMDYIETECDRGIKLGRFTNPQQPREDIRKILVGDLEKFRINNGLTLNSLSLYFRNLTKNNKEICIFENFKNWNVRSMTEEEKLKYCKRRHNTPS
# Experiment: PBM E-score (8-mer binding enrichment) (E-score (-0.5 to 0.5)); higher = stronger / more preferred TF binding; most listed sequences are background and not binding sites
# Conditions: protein concentration: 100 nM; construct: GST-full length
# Protocol: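 Universal 'all 10-mer' protein binding microarrays (Agilent AMADID 015681) probed with GST-tagged S. cerevisiae TFs (full-length or DBD) made by in vitro transcription/translation (PURExpress), about 100-200 nM. Bound TF was detected with fluorescent anti-GST. Each ungapped 8-mer (which stands for itself and its reverse complement) is scored by the PBM enrichment score (E-score), a modified Wilcoxon-Mann-Whitney statistic from -0.5 to +0.5, computed with the Universal PBM Analysis Suite. Scale: above 0.35 generally sequence-specific binding.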
row,Sequence,PBM E-score
1,CACGTGAG,-0.123
2,GCACATAC,-0.11
3,ACGTCTCA,-0.301
4,ACGGTTTC,-0.18
5,GAAGGCAA,-0.00722
6,AAGATATG,0.0193
7,ACCTAGCA,-0.0493
8,CCAAAGGC,-0.185
9,TCCGAGCA,0.268
10,ACAGACGA,0.00488
11,AATGCGAT,0.0438
12,AATCCAGG,0.182
13,CGTAGTAA,-0.114
14,AGGGCCAA,-0.136
15,GAGTGGAA,0.316
16,CCGTCACG,-0.00852
17,ACGTCAGC,-0.0491
18,GCTATGAC,-0.116
19,AGCCAATC,-0.0617
20,CTGAGTTA,-0.23
21,AACCGCGG,-0.131
22,GCCTGCCC,-0.227

row,Sequence,PBM E-score
1,TATTATGA,0.148
2,TGGTACAA,0.034
3,ACTAATCC,0.193
4,ATTGGATC,0.193
5,CGGGAGGC,0.235
6,TAGGCATA,-0.0772
7,GCATTGGC,-0.187
8,GCAATGTA,-0.0536
9,ACCCCTGC,-0.205
10,CGAATTTA,0.037
11,CACTTTGA,0.0238
12,GAGGGCCC,0.0717
13,AAGCGCCT,0.0782
14,AGCCGGCA,0.102
15,ATGATTTG,-0.0178
16,CATGTTAG,-5e-05
17,ACGCGTGC,0.105
18,AGGGTGGG,0.207
19,ACCAAAGC,-0.0876
20,AGCCAACA,0.266
21,ATCTCAGG,0.101
22,AGAGCGAT,-0.198

row,Sequence,PBM E-score
1,ATTTGTAG,0.0518
2,ATCACGTA,-0.017
3,GCCACACC,0.035
4,CCTACAAC,0.0249
5,GCACGTCA,-0.218
6,AAGCCACG,0.106
7,AGCGCGAG,-0.138
8,CCATACAC,0.192
9,AACGGCTG,-0.12
10,AAATTGGC,0.0713
11,ACAAGATG,0.294
12,ACAAGGAG,0.0618
13,ATTCGCAG,0.151
14,AAGTTAGA,0.173
15,TAATCCGA,0.0297
16,CTTAAAAG,-0.0437
17,CGAGATAG,-0.136
18,ACCAGAAA,0.0905
19,AGGCTCAT,-0.23
20,ACTATCTG,0.0432
21,AAGTGCAT,-0.167
22,CCCTCCAA,-0.0697

row,Sequence,PBM E-score
1,TTGTAAAA,0.0978
2,ACATCGAG,-0.0044
3,GCGTTAAC,-0.0953
4,CTTTATGC,0.0135
5,ACCTGTAA,-0.0579
6,CCCAGTAA,0.265
7,ACAGAAAT,0.0285
8,TCGAAGAA,-0.148
9,GCCCGTGA,-0.261
10,CCTAGATA,0.0612
11,CGGTAACA,-0.115
12,AATAGTCG,0.082
13,GCGAGCCC,-0.139
14,AGGGAGCA,-0.171
15,TTCGTAAA,0.23
16,AGCATTGA,0.00325
17,ACACAACT,0.0269
18,AGCTCATA,-0.0759
19,CGTGACCA,-0.162
20,GCCTAGCC,-0.169
21,AAGAGGCG,0.0559
22,AAGCACTT,-0.17

row,Sequence,PBM E-score
1,AGAGCCAC,0.13
2,CTGTAGGA,0.0663
3,CCGCACGA,-0.112
4,ATAGCACG,0.131
5,ATGTTACC,0.0433
6,CTAATGAG,-0.0278
7,GTGATCAA,-0.275
8,AGTGCGCG,-0.037
9,CAAATAAA,0.0484
10,ACGCGCCT,0.229
11,GTGCGGGA,0.0399
12,AAGCGGTG,-0.142
13,CCTCAAGC,-0.00518
14,GTGGACTA,0.113
15,GGCAGGCA,0.00229
16,CAATAGTC,-0.225
17,ACCGGATA,0.00906
18,AAAACGTT,-0.0204
19,AAGGTATT,-0.119
20,CCCATGAC,-0.131
21,CCACACTA,0.114
22,CCTATGTC,0.172

# — the supplement of paper PMC3334620
